Data reported in PubChem BioAssay AID504832 (National Center for Advancing Translational Sciences (NCATS), 2011).
The whole screen tested about 310,000 compounds, of which about 18,000 (5.8%) were called active. The shares of active, inactive and inconclusive entries below differ from those in the screen. The call rests on the fitted dose curve; in most records, active means well fitted inhibition curve with a large enough effect; inconclusive means small, poorly fitted or top-dose-only effect, or another doubt; inactive means no such curve, though single readings can be large or run the other way. Potencies of inconclusive entries are left out as doubtful fits.

Assay: Primary qHTS for delayed death inhibitors of the malarial parasite plastid, 48 hour incubation
Settings: P. falciparum luciferase growth in erythrocytes; series mostly up to 28.7 µM; activity change, negative = inhibition: at the top concentration
Summary of the method: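 In quantitative HTS format, infected erythrocytes bearing luciferase-reporter parasites were treated for a single generation at 37 C. Luminescence after adding detection reagent served as the growth measure.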
On the % scale 0 is the no-effect control and ±100 the full control effect; potency means the concentration at half of the fitted maximal effect; tags describe the fitted curve by direction and shape.

SMILES	activity change, negative = inhibition	Potency
Cc1ccc(OCc2cc(C(=O)NCCn3cccn3)no2)cc1C	inactive: 18.7%	–
COCCOC(=O)C1=C(N)OC2=C(C(=O)CCC2)C1c1cccnc1 (stereo not given)	–	inconclusive [inhibitor, partial curve, poor fit]
Cn1c(SCC(=O)N/N=C/c2cccs2)nc2ccccc21	inactive: 9.53%	–
CCCCc1cn(C[C@H]2CC[C@@H]([C@@H]3CC[C@H](Cn4cc(CCCC)nn4)O3)O2)nn1	inactive: 25.8%	–
CCOc1ncccc1C(=O)N1CCN(S(=O)(=O)c2cccs2)CC1	inactive: 8.7%	–
Cc1cc(NS(=O)(=O)c2ccc(NC(=O)c3cc(-c4ccccc4Cl)nc4ccccc34)cc2)no1	inactive: -6.03%	–
COc1ccccc1S(=O)(=O)Cc1ccc(C(=O)N2CCN(c3ccc(C)cc3)C(C)C2)o1 (stereo not given)	–	active: 11.7 µM
Cc1ccc2nc(NC(=S)NC(=O)c3ccc(OC(C)C)cc3)sc2c1	–	inconclusive [inhibitor, single point]
Cc1nn(C)c(C)c1NC(=O)CCl	–	inconclusive [inhibitor, partial curve, poor fit]
Cc1cc(C)cc(NC(=O)CCCN2C(=O)C(c3ccccc3)Oc3cccnc32)c1 (stereo not given)	–	inconclusive [inhibitor, partial curve, poor fit]
S=C(Nc1ccccc1Cl)N1CCCC1	inactive: 12.3%	–
O=C(N/N=C/c1cccc(O)c1)c1ccc(NC(=O)C2CCCCC2)cc1	–	inconclusive [inhibitor, partial curve]
CCOC(=O)C=C(C(=O)OCC)C(=O)OCC	inactive: 0.334%	–
COC(=O)C1=C(C)NC(C)=C(C(=O)OC)C1c1ccc(OC(=O)c2oc3ccccc3c2C)c(OC)c1	–	inconclusive [inhibitor, single point]
COc1cccc(NC(=O)CCCCCN2C(=O)[C@@H]3Cc4ccccc4CN3C2=O)c1	–	inconclusive [inhibitor, single point]
CCOC(=O)C1CCN(C(=O)COC(=O)c2nc3nc(C)cc(C)n3n2)CC1	inactive: 4.71%	–
Cc1ccc(C)c(OC(=O)C2CSC3(C)CCC(=O)N23)c1C (stereo not given)	–	inconclusive [inhibitor, single point]
CN(CC(=O)NC1CC1)S(=O)(=O)c1cc(Cl)ccc1Cl	–	active: 4.15 µM
COc1ccc(C(NC(=O)CC(C)C)c2c(O)ccc3ccccc23)cc1 (stereo not given)	–	inconclusive [inhibitor, single point]
COc1cc2c(cc1OC)C(C(=O)Nc1ccccc1N1CCN(C)CC1)C1c3ccccc3CCN1C2=O (stereo not given)	–	inconclusive [inhibitor, partial curve, poor fit]
